Measured values taken from a collection of fitness landscapes (doi:10.1126/science.1257360).
This is one part of the list.

B1: PhoQ; a variant is named by its letters at X, in order, P23837 (parent)
chain: MKKLLRLFFPLSLRVRFLLATAAVVLVLSLAYGMVALIGYSVSFDKTTFRLLRGESNLFYTLAKWENNKLHVELPENIDKQSPTMTLIYDENGQLLWAQRDVPWLMKMIQPDWLKSNGFHEIEADVNDTSLLLSGDHSIQQQLQEVREDDDDAEMTHSVAVNVYPATSRMPKLTIVVVDTIPVELKSSYMVWSWFIYVLSANLLLVIPLLWVAAWWSLRPIEALAKEVRELEEHNRELLNPATTRELTSLVRNLNRLLKSERERYDKYRTTLTDLTHSLKTPLXXLQXXLRSLRSEKMSVSDAEPVMLEQISRISQQIGYYLHRASMRGGTLLSRELHPVAPLLDNLTSALNKVYQRKGVNISLDISPEISFVGEQNDFVEVMGNVLDNACKYCLEFVEISARQTDEHLYIVVEDDGPGIPLSKREVIFDRGQRVDTLRPGQGVGLAVAREITEQYEGKIVAGESMLGGARMEVIFGRQHSAPKDE

Variants of: B1
Assay: enrichment ratio after two sorts for PhoP signalling (ratio (wild type AVST 3.29)); higher = more functional
Conditions: with PhoP (E. coli)

| Variant | enrichment ratio |
| --- | --- |
| NFFQ | ≤ 0.25 |
| AINK | 4.66 |
| KAPP | ≤ 0.25 |
| RVNA | ≤ 0.25 |
| HFTL | ≤ 0.25 |
| FSMP | ≤ 0.25 |
| DHQG | ≤ 0.25 |
| TTIM | ≤ 0.25 |
| IYWD | ≤ 0.25 |
| YPPT | ≤ 0.25 |
| KDVS | ≤ 0.25 |
| MGAT | 18.8 |
| QHPC | ≤ 0.25 |
| IEKL | ≤ 0.25 |
| KNFI | ≤ 0.25 |
| FFYF | ≤ 0.25 |
| WHCR | ≤ 0.25 |
| NWQT | ≤ 0.25 |
| SYVI | 0.418 |
| IDWN | ≤ 0.25 |
| LESH | ≤ 0.25 |
| HEIE | ≤ 0.25 |
| LAGR | ≤ 0.25 |
| KNDY | ≤ 0.25 |

| Variant | enrichment ratio |
| --- | --- |
| LVSE | ≤ 0.25 |
| EANH | ≤ 0.25 |
| SIGI | 10.5 |
| YCLP | ≤ 0.25 |
| QFPF | ≤ 0.25 |
| QKVP | ≤ 0.25 |
| DLIA | ≤ 0.25 |
| PCKC | ≤ 0.25 |
| RPIK | ≤ 0.25 |
| GIFF | ≤ 0.25 |
| APFS | ≤ 0.25 |
| NMKI | ≤ 0.25 |
| PQNQ | ≤ 0.25 |
| QGIK | ≤ 0.25 |
| MSRE | ≤ 0.25 |
| MVTC | ≤ 0.25 |
| QDNL | ≤ 0.25 |
| PYNN | ≤ 0.25 |
| DVVC | ≤ 0.25 |
| EPLR | ≤ 0.25 |
| MHDI | ≤ 0.25 |
| VCLH | ≤ 0.25 |
| PMRL | ≤ 0.25 |
| EARP | ≤ 0.25 |

| Variant | enrichment ratio |
| --- | --- |
| NMSR | ≤ 0.25 |
| IYQI | ≤ 0.25 |
| FLTH | ≤ 0.25 |
| QERE | ≤ 0.25 |
| FNAA | ≤ 0.25 |
| PESA | ≤ 0.25 |
| EHVR | ≤ 0.25 |
| EKNN | ≤ 0.25 |
| NEWF | ≤ 0.25 |
| DAHK | ≤ 0.25 |
| MFCP | ≤ 0.25 |
| KQMP | ≤ 0.25 |
| ADAM | 3.24 |
| DSPN | ≤ 0.25 |
| VLTK | ≤ 0.25 |
| FECL | 7.61 |
| HKWD | ≤ 0.25 |
| FNEG | ≤ 0.25 |
| GTFY | ≤ 0.25 |
| FCFA | ≤ 0.25 |
| RVWD | ≤ 0.25 |
| WCWD | ≤ 0.25 |
| NNTH | ≤ 0.25 |
| SNID | ≤ 0.25 |

| Variant | enrichment ratio |
| --- | --- |
| YVWS | ≤ 0.25 |
| CLRM | ≤ 0.25 |
| NNPW | ≤ 0.25 |
| FHLH | ≤ 0.25 |
| WYRP | ≤ 0.25 |
| WEWR | ≤ 0.25 |
| RNSA | ≤ 0.25 |
| NRSM | ≤ 0.25 |
| FMAW | ≤ 0.25 |
| RANS | ≤ 0.25 |
| QHSD | ≤ 0.25 |
| VTNE | ≤ 0.25 |
| IHNQ | ≤ 0.25 |
| FGRA | 0.331 |
| YDQV | ≤ 0.25 |
| NCHP | ≤ 0.25 |
| MGMD | ≤ 0.25 |
| YQAC | ≤ 0.25 |
| MAGT | ≤ 0.25 |
| TCMH | 15.1 |
| YFTW | ≤ 0.25 |
| EHRE | ≤ 0.25 |
| EAHH | ≤ 0.25 |
| TITD | ≤ 0.25 |

| Variant | enrichment ratio |
| --- | --- |
| PSVA | ≤ 0.25 |
| FMLG | 1.37 |
| TCRR | ≤ 0.25 |
| YSDP | ≤ 0.25 |
| LRSY | ≤ 0.25 |
| QENN | 3.33 |
| DNKY | ≤ 0.25 |
| TMNP | ≤ 0.25 |
| GECV | 16.3 |
| DFWQ | ≤ 0.25 |
| GYRC | ≤ 0.25 |
| MYRE | ≤ 0.25 |
| PIIY | ≤ 0.25 |
| GCPR | ≤ 0.25 |
| HPWF | ≤ 0.25 |
| IMVM | ≤ 0.25 |
| ALVE | ≤ 0.25 |
| SFPI | ≤ 0.25 |
| ESAI | ≤ 0.25 |
| AIFY | ≤ 0.25 |
| GQQL | ≤ 0.25 |
| VGVR | ≤ 0.25 |
| FDET | ≤ 0.25 |
| SDCG | 3.08 |

| Variant | enrichment ratio |
| --- | --- |
| DPRD | ≤ 0.25 |
| LHEN | ≤ 0.25 |
| KNSR | ≤ 0.25 |
| ASYR | ≤ 0.25 |
| NYMC | ≤ 0.25 |
| GYRH | ≤ 0.25 |
| DYPN | ≤ 0.25 |
| AFDG | ≤ 0.25 |
| FPYW | ≤ 0.25 |
| YKCP | ≤ 0.25 |
| PMIH | ≤ 0.25 |
| SINR | 4.44 |
| PWMK | ≤ 0.25 |
| GDAA | ≤ 0.25 |
| SILG | 8.57 |
| LQCQ | ≤ 0.25 |
| ARGT | ≤ 0.25 |
| LNYC | ≤ 0.25 |
| RLVW | ≤ 0.25 |
| IYMN | ≤ 0.25 |
| RLLA | ≤ 0.25 |
| YHRA | ≤ 0.25 |
| FNGS | ≤ 0.25 |
| KFYI | ≤ 0.25 |

| Variant | enrichment ratio |
| --- | --- |
| VWCR | ≤ 0.25 |
| MTMS | ≤ 0.25 |
| PSQN | ≤ 0.25 |
| IELQ | ≤ 0.25 |
| MVAK | 5.7 |
| KGTR | ≤ 0.25 |
| GWVH | ≤ 0.25 |
| YKYI | ≤ 0.25 |
| VDLK | ≤ 0.25 |
| NGGV | ≤ 0.25 |
| QKRF | ≤ 0.25 |
| YTLV | 15.7 |
| VADH | ≤ 0.25 |
| REVE | ≤ 0.25 |
| EIHV | ≤ 0.25 |
| LPCN | ≤ 0.25 |
| HDEE | ≤ 0.25 |
| KLPM | ≤ 0.25 |
| AQFA | ≤ 0.25 |
| DQGV | ≤ 0.25 |
| NFKL | ≤ 0.25 |
| PGNG | ≤ 0.25 |
| YDNV | ≤ 0.25 |
| MNCT | ≤ 0.25 |

| Variant | enrichment ratio |
| --- | --- |
| VSTP | ≤ 0.25 |
| GNWE | ≤ 0.25 |
| KQSN | ≤ 0.25 |
| HMAP | ≤ 0.25 |
| ANHL | ≤ 0.25 |
| QDFT | ≤ 0.25 |
| ICKH | ≤ 0.25 |
| QLDP | ≤ 0.25 |
| GFYY | ≤ 0.25 |
| PKGE | ≤ 0.25 |
| THAL | 7.07 |
| YATN | ≤ 0.25 |
| RPIQ | ≤ 0.25 |
| PMWE | ≤ 0.25 |
| KGEA | ≤ 0.25 |
| NFYI | ≤ 0.25 |
| YDEG | ≤ 0.25 |
| AYLF | 2.34 |
| AGRG | ≤ 0.25 |
| MQKS | ≤ 0.25 |
| DNRG | ≤ 0.25 |
| VNTV | 0.761 |
| PDTW | ≤ 0.25 |
| DKDF | ≤ 0.25 |

| Variant | enrichment ratio |
| --- | --- |
| PKYG | ≤ 0.25 |
| VMIA | ≤ 0.25 |
| ENTY | ≤ 0.25 |
| QWVC | ≤ 0.25 |
| RAFK | ≤ 0.25 |
| MFRY | ≤ 0.25 |
| AMES | ≤ 0.25 |
| HPVC | ≤ 0.25 |
| LKRF | ≤ 0.25 |
| DAIE | ≤ 0.25 |
| SCIE | ≤ 0.25 |
| RQVS | ≤ 0.25 |
| IMCY | ≤ 0.25 |
| AQKC | ≤ 0.25 |
| FKPE | ≤ 0.25 |
| IDAR | ≤ 0.25 |
| KLVM | ≤ 0.25 |
| HICH | ≤ 0.25 |
| IQKR | ≤ 0.25 |
| EEHT | ≤ 0.25 |
| TNRS | ≤ 0.25 |
| LQPS | ≤ 0.25 |
| EIPQ | ≤ 0.25 |
| GDGY | ≤ 0.25 |

| Variant | enrichment ratio |
| --- | --- |
| GMSK | ≤ 0.25 |
| KSKI | ≤ 0.25 |
| ACYV | ≤ 0.25 |
| HVQW | ≤ 0.25 |
| MGMA | 0.253 |
| LGIE | ≤ 0.25 |
| WLPN | ≤ 0.25 |
| GCLF | 13.2 |
| FQHL | ≤ 0.25 |
| KDLC | ≤ 0.25 |
| ILSY | ≤ 0.25 |
| YDVG | ≤ 0.25 |
| VNWQ | ≤ 0.25 |
| KVVL | ≤ 0.25 |
| NGRL | ≤ 0.25 |
| WHWW | ≤ 0.25 |
| IAAW | ≤ 0.25 |
| EKFN | ≤ 0.25 |
| INRL | ≤ 0.25 |
| DMET | ≤ 0.25 |
| FAWD | ≤ 0.25 |
| NQCC | ≤ 0.25 |
| RLMK | ≤ 0.25 |
| MPNE | ≤ 0.25 |

| Variant | enrichment ratio |
| --- | --- |
| TVAF | 4.5 |
| SDHG | ≤ 0.25 |
| FDGM | ≤ 0.25 |
| YGSV | 0.666 |
| HHKC | ≤ 0.25 |
| NQWA | ≤ 0.25 |
| ITST | ≤ 0.25 |
| MRSF | ≤ 0.25 |
| KDDL | ≤ 0.25 |
| HIVF | ≤ 0.25 |
| GHWN | ≤ 0.25 |
| TAIW | ≤ 0.25 |
| MNQE | ≤ 0.25 |
| ICYE | ≤ 0.25 |
| CLPW | ≤ 0.25 |
| SSNN | ≤ 0.25 |
| AMYI | 0.253 |
| PEYI | ≤ 0.25 |
| LLFI | ≤ 0.25 |
| MTVN | ≤ 0.25 |
| CHSL | ≤ 0.25 |
| TCPS | ≤ 0.25 |
| PQLH | ≤ 0.25 |
| TSLW | ≤ 0.25 |

| Variant | enrichment ratio |
| --- | --- |
| LGIL | ≤ 0.25 |
| GNTN | ≤ 0.25 |
| QMRP | ≤ 0.25 |
| SNYT | ≤ 0.25 |
| VFGK | ≤ 0.25 |
| VNKD | ≤ 0.25 |
| EIMC | ≤ 0.25 |
| NRPW | ≤ 0.25 |
| LRQV | ≤ 0.25 |
| TFFD | ≤ 0.25 |
| DHIQ | ≤ 0.25 |
| RDQA | ≤ 0.25 |
| RIIK | ≤ 0.25 |
| MEEY | ≤ 0.25 |
| TQTI | 10.9 |
| RCLF | ≤ 0.25 |
| IRRM | ≤ 0.25 |
| PNAA | ≤ 0.25 |
| LHAP | ≤ 0.25 |
| LAQP | ≤ 0.25 |
| MMYT | ≤ 0.25 |
| QDVN | ≤ 0.25 |
| PVFG | ≤ 0.25 |
| FNLN | ≤ 0.25 |

| Variant | enrichment ratio |
| --- | --- |
| MGCH | 3.22 |
| MHPL | ≤ 0.25 |
| LREW | ≤ 0.25 |
| KPIA | ≤ 0.25 |
| MSWF | 2.84 |
| WNRK | ≤ 0.25 |
| TIKW | ≤ 0.25 |
| VNQY | ≤ 0.25 |
| PLYY | ≤ 0.25 |
| WPGM | ≤ 0.25 |
| VTMT | ≤ 0.25 |
| KEFR | ≤ 0.25 |
| YWRE | ≤ 0.25 |
| WLLC | ≤ 0.25 |
| PSAV | ≤ 0.25 |
| WDGG | ≤ 0.25 |
| NHRG | ≤ 0.25 |
| IDRM | ≤ 0.25 |
